# Test results as given in PubChem BioAssay AID1362 (SRMLSC, 2008).
# This is one part of the list. These are further read-outs of the screen, such as a control signal, another cell line or another target. No call is given for them. Compounds called inactive in the main read-out are mostly missing here.
# Test: growth inhibition of WT strain, primary screen, mitochondrial fusion inhibitor project, WT and mutant strains, chemical genetic (AID 1362); further: tested in S. cerevisiae
# Conditions: mitochondrial fusion phenotypic screen, at 10 µM
row,SMILES,inhibition [%]
1,Cc1ccc(Sc2ccc(NC(=O)CCl)cc2)c(C)c1,14.9
2,CCOC(=O)C1=NN(c2ccccc2)C2(S1)SC(C(C)=O)=C(C)N2c1ccccc1 (centres undefined),1.57
3,Cc1ccc(C(=O)NC(=S)/C=C2\N(C)c3ccccc3C2(C)C)cc1,12.3
4,Fc1nc(F)c(F)c(NCCCNc2c(F)c(F)nc(F)c2F)c1F,39.4
5,O=C(/C=C/c1ccc(Cl)cc1Cl)NCCSCc1ccccc1,34.6
6,Cc1ccccc1CSCC(=O)Nc1ccccc1-c1ccccc1,35.3
7,CCOc1cc(C(=O)N(C)Cc2cc3ccccc3[nH]c2=O)cc(OCC)c1OCC,2.19
8,CCN(C(=O)c1ccc2c(Cl)c3c(nc2c1)CCC3)c1ccc(C)c(C)c1,81.9
9,CCCN(CC(=O)Nc1cccc(Br)c1)CC(=O)Nc1ccc(F)c(F)c1F,34.7
10,CC(C1CC1)N(Cc1ccccc1)C(=S)Nc1cccc(C(F)(F)F)c1 (centres undefined),41.9
11,CN1CC(=O)Nc2ccc(F)cc2C1=O,1.89
12,S=c1[nH]c(-c2ccc(Cl)cc2)cs1,52.5
13,CCOc1ccc(C(c2c(NC(=O)c3ccccc3)sc(C)c2C)N2CCN(C)CC2)cc1 (centres undefined),28.6
14,CCC(C)(C)c1ccc(OCCCC[n+]2cccc(C)c2)c(C(C)(C)CC)c1,97
15,c1ccc(-c2nnc(CSc3nnc(-c4ccncc4)n3Cc3ccco3)o2)cc1,0.62
16,Cc1nc2c(-c3ccccc3)c(C)nn2c(N)c1-c1ccccc1,65.4
17,COc1ccccc1C1(CCNS(=O)(=O)c2ccc(C)cc2)CCOC(C(C)C)C1 (centres undefined),4.36
18,CN(C)c1cc[n+](CC(=O)c2ccc(-c3ccccc3)cc2)cc1,70.7
19,COc1ccc(CCNC(=S)Nc2cccc3ccccc23)cc1,35.3
20,S=C(NCCc1ccccc1)Nc1ccc(Nc2ccccc2)cc1,58.2
21,CCCC[n+]1c(-c2ccc(Cl)cc2Cl)csc1Nc1ccccc1,-1.63
22,Nc1c(C(=O)NC2CCCC2)sc2nc(-c3cccs3)ccc12,2.09
23,Cc1cc(/C=C\c2ccccc2)nc2ccccc12,38.4

row,SMILES,inhibition [%]
1,Cc1nc2cc(C(=O)OCC(=O)NC34CC5CC(CC(C5)C3)C4)ccc2n1-c1ccccc1,-2.64
2,CCN(CC)S(=O)(=O)c1cccc(NC(=O)c2ccc(Br)cc2)c1,40.6
3,CCCCCCOC1(c2ccccc2)OC(=O)c2ccccc21 (centres undefined),1.87
4,COc1ccc(-c2noc(N(C)CC(=O)Nc3cccc(C(F)(F)F)c3)n2)cc1,34
5,CCOc1ccc(NC(=S)NC(C)CCc2ccccc2)cc1 (centres undefined),57.7
6,Cc1ccc(C)c(NC(=S)Nc2cccc3cnccc23)c1,46.1
7,O=C(NC12CC3CC(CC(C3)C1)C2)c1ccc(-c2cccc(Cl)c2)o1,28.8
8,Cc1ccc(S(=O)(=O)N(Cc2ccccc2)Cc2ccco2)cc1,42.5
9,COc1ccc(C(=O)/C(C#N)=N/Nc2ccc([N+](=O)[O-])cc2)cc1,41.6
10,Cc1cc(C)nc(NC2=NCC(=O)N2c2ccc3c(c2)OCCO3)n1,-18.4
11,COC(=O)[C@@]1(Cc2ccc(OC)cc2)[C@H]2c3cc(C(=O)N4CCCC4)n(Cc4ccc(C)o4)c3C[C@H]2CN1C(=O)c1ccccc1,18
12,CC(C)N(Cc1ccccc1)C(=S)NC1CCCCC1,30.5
13,CNC(=S)N1CCN(C(c2ccccc2)c2ccccc2)CC1,32.3
14,Cc1ccc2nc(N/N=C/c3ccccc3F)nc(-c3ccccc3)c2c1,-0.94
15,CCN1/C(=C\c2ccc3cc(C)ccc3[n+]2CC)Sc2cc(C)c(C)cc21,84
16,Cc1ccc(S(=O)(=O)n2c3ccc(F)cc3c3nc(C)sc32)cc1,36.1
17,COc1cccc(NC(=S)N/N=C2/CCCCc3ccccc32)c1,51
18,Cc1ccc(-c2csc(N(CC3CCCO3)C(=O)c3ccco3)n2)cc1 (centres undefined),7.1
19,CC(C)(C)C1C/C(=C/c2ccccn2)C(=O)/C(=C/c2ccccn2)C1 (centres undefined),32.3
20,S=C1NC(c2cccs2)=CC(c2ccc(Br)cc2)N1 (centres undefined),41.6
21,Cc1ccc2nc(Cl)c(/C=N/NC(=O)c3ccccc3O)cc2c1,27.6
22,Cc1ccc(N=N/C(=C\O)C(=O)c2ccc(Cl)cc2)cc1,96.8
23,CCc1ccc(NC(=S)N2CCCCCCC2)cc1,49.1

row,SMILES,inhibition [%]
1,Cc1ccc(NC(=S)N(CCCN2CCCC2)Cc2cccn2Cc2ccc(Cl)cc2)cc1Cl,74.4
2,Cc1ccc(-c2nc3cc(Br)cnc3nc2-c2ccc(C)cc2)cc1,22.2
3,O=C(c1ccc(Cl)c(Cl)c1)c1cnc(Nc2ccccc2)s1,-1.32
4,O=C1C=C(Nc2ccccc2)C(=O)c2ccccc21,50.5
5,O=C(CCn1nnc2ccccc21)Nc1nnc(Cc2ccccc2)s1,0.2
6,Cc1ccc(OCC(=O)Nc2ccccc2N2CCCC2)c(C)c1,17.2
7,Cc1cccn2c(=O)c(/C=C(\C#N)S(=O)(=O)c3ccccc3)c(Oc3ccc(Cl)cc3)nc12,22.3
8,O=C(c1ccccc1)c1nnc(-c2ccncc2)o1,15
9,CC(C)Cc1nc(N2CCN(C(=O)c3ccccc3)CC2)c(C#N)c2c1CCC2,-10.1
10,COc1ccccc1N1CCN(C(=O)c2oc3ccc(Br)cc3c2C)CC1,32.6
11,COc1ccc(C(=O)N/N=C(\c2ccccc2)c2ccccn2)cc1,60.8
12,S=C(NCCc1ccccc1)N/N=C/C1CCCCC1,66.8
13,COc1cc(OC)c(-c2c3cc(O)c(=O)cc-3oc3cc(O)c(O)cc23)cc1OC,57.7
14,COC(=O)c1ccc(Oc2cc(C)nc(-n3nc(C)cc3C)n2)cc1,60.8
15,Cc1ccc2sc(NNC(=O)C3COc4ccccc4O3)nc2c1C (centres undefined),65.2
16,Cc1cc(N2CCN(C(c3ccccc3)c3ccc(Cl)cc3)CC2)n2ncnc2n1 (centres undefined),43
17,CC(/C=N/n1c(COc2ccccc2)n[nH]c1=S)=C\c1ccccc1,65.2
18,Cc1cc(C)n(-c2nc(NCCC(C)C)c3c4c(sc3n2)COC(C)(C)C4)n1,52.9
19,Cc1nc(-c2cccc(NS(=O)(=O)c3ccc4ccccc4c3)c2)cs1,30.3
20,Cc1cccc(C)c1NC(=S)NCCSc1ccc(Cl)cc1,65.4
21,CC(C)OC(=O)C(C(=O)C(F)(F)F)c1cc(NS(=O)(=O)c2ccc3ccccc3c2)c2ccccc2c1O (centres undefined),0.67
22,CCC(NC(=O)c1ccccc1NC(=O)c1ccccc1)C(=O)OC (centres undefined),74.8
23,CCOc1ccc(C(=O)C(CCC(CN(C)C)C(=O)c2ccc(OCC)cc2)CN(C)C)cc1 (centres undefined),12.6
